From the RNAGym collection of RNA variant scans (doi:10.1093/nar/gkz1192) come the findings set out here.

To fix the notation:
B1: CPEB3 Ribozyme (parent)
chain: UAACAGGGGGCCACAGCAGAAGCGUUCACGUCGCAGCCCCUGUCAGAUUCUGGUGAAUCUGCGAAUUCUGCUGUAUAUCUC

Read counts are not given, so values of variants with three or more changes are uncertain.

Variants of B1 are the subject of this series. Description: self-cleavage, relative activity (ratio to wild type); higher = more cleavage; in vitro, sequencing. The procedure, abridged:
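Relative activity compares each variant's cleaved/total read fraction with that of the unmutated ribozyme. To get these fractions, barcoded CPEB3 ribozyme libraries from rounds of error-prone PCR were transcribed with T7 RNA polymerase for 5 hours at 37°C and then given 15 min of DNase I treatment before EDTA was added. The RNAs were reverse transcribed with template switching and sequenced on Illumina, and DNA sequencing linked barcodes to variants. A minimum of 5 reads applied, and three batches were averaged.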
UAACAGGGGGCCACUGCAGAAGCGUACACAUCGCAGCCCUUGUCAGAUUCUGGUGAACCCGCGAAUUCUGCUGUAUGUCUC [A15U U26A G30A C40U U58C U60C A77G]: the self-cleavage came out at 0.04.

Consider UAACAGGGGGCCACUGCAGAAGCGCACACGUCGCAGCCCCUGGCAGAUUCUGGUGGAUCUGCGAAUUCUGCUGCAUAUCUC [A15U U25C U26A U43G A56G U74C], for which the self-cleavage turned out to be 0.18.

UAACAGGGGGCCACUGCAGAAGCGUACACGUCGGAGCCCCUGUCGGAUUCUGGUGAAUCUGCGGAUUCUGCUGUAUAUCUC [A15U U26A C34G A45G A64G]: the self-cleavage was found to be 0.08.

Take UAACAGGGGGCCACUGCAGAAGCGAUCACGCCGCAGCCCCUGGCAGAUUCUGGUGAAUCUGCGAAUUCUGCUGUAUAACUC [A15U U25A U31C U43G U78A]: the self-cleavage was found to be 0.29.

As to UAACAGGGGGCCACUGCAGAAGCGCUCACGUCGCAGCCCCUGACAGAUUCUGGUGAAUCUGCGAAUUCUGCUGUAUAUCUC [A15U U25C U43A], the self-cleavage came out at 0.16.

In the case of UAACAGGGGGCCACUGCAGAAGCGCUCACGUCGCAGCCCCCGUCAGAUUCUGGCGAAUCUGCGAAUCCUGCUGUAUACCUC [A15U U25C U41C U54C U67C U78C], the self-cleavage came to 0.04.

As to UAACAGGGGGCCACUGCAGAAGCGUACACGUCGGAGCCCCUGUCAGAUUCUGGUGAAUCUGCGAAUUCUGCUGUACAUCUC [A15U U26A C34G U76C], the self-cleavage stood at 0.11.

As to UAACAGGGGGCCACUGCAGAAGCGCUCCCGCCGCAGCCCCUGUCAGAUUCUGGUGAAUCUGCGGAUUCUGCUGUAUAUCCC [A15U U25C A28C U31C A64G U80C], the self-cleavage stood at 0.07.

UAACAGGGGGCCACUGCAGAAGCGUCCACGUUGCGGCCCCUGUCGGAUUCUGGUGAAUCUGCGUAUUCUGCUGUAUAUCUU [A15U U26C C32U A35G A45G A64U C81U]: the self-cleavage is 0.04.

Regarding UAACAGGGGGCCACUGCAGAAGCGCUCACGUCGCAGCCCCUGUCAGAUUCUGGUGAAUCUGCGGAUUCUGCCGUAUAUCUC [A15U U25C A64G U72C], the self-cleavage is 0.2.

As for UAACAGGGGGCCACUGCAGAAGCGCUCACGUCGCAGCCCCUGUCCGAUUCAGGUGAAUCUGCGAAUUCUGAUGUAUAUCUC [A15U U25C A45C U51A C71A], the self-cleavage is 0.07.

As to UAACAGGGGGCCACUGCAGAAGCGCUCACGUCGCAGCCUUUGUCAGAUUCUGGUGAAUCUGCGAAUUCCGCUGUAUGUCUC [A15U U25C C39U C40U U69C A77G], the self-cleavage was determined as 0.02.

On to UAACAGGGGGCCACUGCAGAAGCGUACACGUCGCAGCCCCUGUCAGCUUCUGGUGCAUCUGCGAAUUCUGCUGUAUAUCUC [A15U U26A A47C A56C], for which the self-cleavage was determined as 0.08.

As for UAACAGGGGGCCACUGCAGAAGCGUACACGUCGCAGCCCCUGUCAGAUUCUGGUGAAUCUUCGAAUCCUGCUGAAUAUCUC [A15U U26A G61U U67C U74A], the self-cleavage came out at 0.05.

For UAACAGGGGGCCACUGCAGAAGCGUCCCCGUCGCAGCCCCUGCCAGAUACUGGUGAAUCUGCGAAUUCUGCUGUAUAUCUC [A15U U26C A28C U43C U49A], the self-cleavage was determined as 0.05.

As to UAACAGGGGGCCACUGCAGAAGCGCUCACGUCGCAGCCCCUGUCAGAUUCUGGUGAAUCCGCGAAUGCUGCUGUAUAUCUC [A15U U25C U60C U67G], the self-cleavage worked out at 0.07.

On to UAACAGGGGGCCACUGCAGAAGCGCUCACGUCGCUGCCCCUGUCAGUUUCUGGUGUAUCUGCGAAUUCUGCUGUAUAUCUC [A15U U25C A35U A47U A56U], for which the self-cleavage came to 0.17.

On to UAACAGGGGGCCACUGCAGAAGCGUCCACGUAGCAGCCCCUGUCAGAUUCUGGUGAAACUGCGAAUUCUGCUGUAUAUCUC [A15U U26C C32A U58A], for which the self-cleavage was found to be 0.12.

For UAACAGGGGGCCACUGCAGAAGCGUCCACGUCGCAGCCCAUGUCAGAUUCUGGUGAAUCUGCGAAUUCUGCUGUAUUCCUC [A15U U26C C40A A77U U78C], the self-cleavage worked out at 0.04.

Take UAACAGGGGGCCACUGCAGAAGCGAUCACGUCGCAGCCCCUGUCGGCCUCUGGUGAAUCUGCGAAUUCUGCUGUAUAUCUC [A15U U25A A45G A47C U48C]: the self-cleavage came out at 0.23.

Take UAACAGGGGGCCACUGCAGAAGCGUUCACGUCGCAGCCCCUGUCAGAUUCUGGUGAAUCUGCCAAUUCUGCCGUAUUUCUC [A15U G63C U72C A77U]: the self-cleavage was 0.81.

Turning to UAACAGGGGGCCACUGCAGAAGCGUACACGUCGCAGCCCCUGCCAGAUUCUGGUGAAUCUGCGAAUUCUGCUGUAUACCUC [A15U U26A U43C U78C], the self-cleavage is 0.14.

For UAACAGGGGGCCACUGCAGAAGCGUACACGUCGCAGCCCCCGUCAGAUUCUGGUGAAUCUGCGAAUUCUGCUGUAUAUCUC [A15U U26A U41C], the self-cleavage was found to be 0.48.

As for UAACAGGGGGCCACUGCAGAAGCGCUCUCGUCGCAGCCCCUGGCAGAUUCAGGUGAAUCUGCGAAUUCUGCUGUAUAUCUC [A15U U25C A28U U43G U51A], the self-cleavage worked out at 0.15.

For the variant UAACAGGGGGCCACUGCAGAAGCGAUCACGUCGCAGCCCCUGUCAGAUUCUGGUGAAUCUGCGAACCCUGCUGUAUAUCUC [A15U U25A U66C U67C], the self-cleavage stood at 0.13.

Turning to UAACAGGGGGCCACUGCAGAAGCGUACACGCCGCAGCCCCUGUCAGAUUCUGGUGAAUCUGCGAGUUCUGCUGUAUGUCUC [A15U U26A U31C A65G A77G], the self-cleavage is 0.13.

On to UAACAGGGGGCCACUGCAGAAGCGUUCACGUCGCAGCCCCUGUCAGAUUCUGGUGAAUCUGCGAAUUCUCCAGUAUAUCUC [A15U G70C U72A], for which the self-cleavage came to 0.06.

For the variant UAACAGGGGGCCACUGCAGAAGCGUCCACGUCGCUGCCCCUGGCAGAUUCUGGUGAAUCAGCGAAUUCUGCUGUAUAUCUC [A15U U26C A35U U43G U60A], the self-cleavage was 0.05.

For the variant UAACAGGGGGCCACUGCAGAAGCGAUCACGUCGCAGCCCCUGUCAGAUUCUGGUGAAUCUGCGAAUUCUGCUGUGUAUCUC [A15U U25A A75G], the self-cleavage came to 0.13.

Turning to UAACAGGGGGCCACUGCAGAAGCGCUCACGUCGCAGCCCCUGUCAGAUUCUGGUGAAUCAGCGAAUUCUGCCGUAUACCUC [A15U U25C U60A U72C U78C], the self-cleavage was found to be 0.08.

UAACAGGGGGCCACUGCAGAAGCGUCCACGUUGCGGCCCCUGCCAGAUUCUGGUGAAUCUGUGAAUUCUGCAGUAUAUCUC [A15U U26C C32U A35G U43C C62U U72A]: the self-cleavage was 0.15.

Regarding UAACAGGGGGCCACUGCAGAAGCGUCCACGUGGCAGCCCCUGUCAGAUUCUGGUGGAUCUGCGAAUUCUGCUGUAUAUCUC [A15U U26C C32G A56G], the self-cleavage stood at 0.23.

For the variant UAACAGGGGGCCACUGCAGAAGCGUUCACGUCGCAGCCCCUGUCAGAUUCUGGUGAAUCUGCAAACUCUGCUGUAUAUCUC [A15U G63A U66C], the self-cleavage came to 0.14.

In the case of UAACAGGGGGCCACUGCAGAAGCGCUCACGUCGCAGCCCCUGUCAGAUUCUGGUGAAUCUGCGAAUUCUGCUGUAUGUCUC [A15U U25C A77G], the self-cleavage came out at 0.26.
